# Source: PubChem BioAssay AID2675 (National Center for Advancing Translational Sciences (NCATS), 2010)
# About 100 (0.036%) of roughly 280,000 compounds were called active. Inconclusive means that the source gave no clear call. Such entries were picked first, then a sample of the others. Calls come from the whole dose curve; as a rule, active = well fitted inhibition curve with a large enough effect in the signal ratio, with a control signal flat (not every such curve was filed as active); inconclusive = small, poorly fitted or top-dose-only effect, or effect the other way, or a change in a side signal; inactive = no such curve, though single readings can be large or run the other way; the % refers to the signal ratio. A potency beside an inconclusive call is a rough fit, not a confirmed value. A note “side channel” means that the fit belongs to a control or component signal, not to the main read-out.
# Target: Muscleblind-like protein 1 (Homo sapiens) (UniProt Q9NR56)
# Sequence of UniProt Q9NR56 (Q9NR56 whole entry, looked up): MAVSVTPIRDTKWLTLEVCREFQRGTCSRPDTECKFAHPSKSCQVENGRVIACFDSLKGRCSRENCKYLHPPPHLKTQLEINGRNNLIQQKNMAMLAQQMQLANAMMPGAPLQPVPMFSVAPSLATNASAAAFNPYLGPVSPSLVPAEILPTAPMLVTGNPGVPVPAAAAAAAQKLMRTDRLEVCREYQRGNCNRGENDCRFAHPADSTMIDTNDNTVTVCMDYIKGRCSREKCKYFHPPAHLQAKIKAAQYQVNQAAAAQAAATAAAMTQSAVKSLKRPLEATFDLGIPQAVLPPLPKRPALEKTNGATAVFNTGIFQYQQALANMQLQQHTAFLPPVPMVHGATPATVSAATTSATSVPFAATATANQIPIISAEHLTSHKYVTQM
# Experiment: qHTS Assay for Inhibitors of MBNL1-poly(CUG) RNA binding
# Conditions: TR-FRET MBNL1-His/biotin-(CUG)12 binding, 665/545 ratio; series mostly up to 57.5 µM
# In short: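 TR-FRET readout: Ex 340 nm, 665/545 nm emission ratio, normalized to buffer-only (basal) and MBNL1-(CUG)12 controls. Complex of MBNL1-His with Biotin-(CUG)12, compounds 92 nM–58 uM, incubated 60 min at room temperature.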
# Potency is the fitted concentration of half-maximal effect; tags give direction and shape of the fitted curve or compound fluorescence and quenching.
row,SMILES,Potency
1,COc1ccc(CCn2c(=N)c(C(=O)NC3CCCC3)cc3c(=O)n4ccccc4nc32)cc1OC,"inconclusive: 2.51 µM [quencher, full curve]"
2,CCOc1ccc(C(=O)Nc2ccc(N3CCCC3)cc2)cc1,inactive
3,O=C1CN(C(=O)c2ccc(Br)o2)C(c2ccc(F)cc2)c2cc(F)ccc2N1 (stereo not drawn),"inconclusive: 4.47 µM [quencher, side channel, single point]"
4,CC(Sc1ccsc1[N+](=O)[O-])C(=O)NCc1ccco1 (stereo not drawn),"inconclusive: 7.94 µM [quencher, side channel, partial curve]"
5,O=C(CCc1n[nH]c(=O)[nH]c1=O)Nc1cccc([N+](=O)[O-])c1,"inconclusive: 25.1 µM [quencher, partial curve]"
6,CC(C)(C)CC(=O)NC(=S)N1CCCCCC1,inactive
7,COc1ccc(Cn2nnnc2C(CC(C)C)N2CCN(c3ccccc3)CC2)cc1 (stereo not drawn),inactive
8,O=[N+]([O-])c1ccc(NCc2ccncc2)cc1,"inconclusive: 17.8 µM [quencher, side channel, partial curve]"
9,CCOc1cccc(/C(O)=C2/C(=O)C(=O)N(CCOC)C2c2ccco2)c1 (stereo not drawn),"inconclusive: 35.5 µM [quencher, side channel, single point]"
10,C=CCc1ccc(OCC(O)CN2CCN(c3ccccc3)CC2)c(OC)c1 (stereo not drawn),inactive
11,Cc1ccc(CSCC(Nc2ccc(C(=O)O)cc2[N+](=O)[O-])C(=O)O)cc1 (stereo not drawn),"inconclusive: 28.2 µM [quencher, single point]"
12,Cn1cccc1Cc1nnc(SCC(=O)Nc2ccc(F)cc2F)n1-c1ccc(F)cc1,"inconclusive: 39.8 µM [quencher, side channel, single point]"
13,O=C(CCCNS(=O)(=O)c1cccc2nsnc12)N1CCCCC1,"inconclusive: 15.8 µM [quencher, partial curve]"
14,CCc1ccccc1N(CC(=O)NCC1CCCO1)C(=O)CCC(=O)Nc1nccs1 (stereo not drawn),inactive
15,CC(=O)N1N=C(c2cccs2)CC1c1cccs1 (stereo not drawn),"inconclusive: 11.2 µM [quencher, side channel, partial curve]"
16,CCOC(=O)c1cc(-c2ccccc2)sc1NC(=O)C(C)OC(=O)c1ccncc1 (stereo not drawn),"inconclusive: 25.1 µM [fluorescent, side channel, partial curve]"
17,CN(C)c1ccc(/C=C/C(=O)c2cccc(Br)c2)cc1,inactive
18,COc1n[nH]c2nncnc12,"inconclusive: 12.6 µM [quencher, side channel, partial curve]"
19,CC(C)C(=O)N1CCN(c2ccc([N+](=O)[O-])cc2Cl)CC1,"inconclusive: 11.2 µM [quencher, side channel, partial curve]"
20,CCCN(CCC)CCCNc1ccc(C(=O)Nc2cccc(OC)c2)cc1[N+](=O)[O-],"inconclusive: 14.1 µM [quencher, side channel, partial curve]"
21,N#C/C(=C/c1ccc(O)c(O)c1)C(=O)NCc1ccc(Cl)cc1,"inconclusive: 15.8 µM [quencher, side channel, partial curve]"

row,SMILES,Potency
1,CCOC(=O)c1ccc(NC(=O)CN2C(=O)CCC2=O)cc1,"inconclusive: 3.98 µM [quencher, side channel, partial curve]"
2,CCN(CC)C(=O)Oc1ccc2oc(=O)cc(-c3cc4cccc(OC)c4o3)c2c1,inactive
3,Oc1cccc(/C=N/N2CCCCC2)c1O,inactive
4,Cn1c(CCN2CCCCC2)nc2cc(NS(=O)(=O)c3ccc(F)cc3)ccc21,inactive
5,COc1cccc(/C(C)=N/NC(=O)c2ccc(N(C)C)cc2)c1,inactive
6,CC(=O)Nc1ccc(S(=O)(=O)Nc2ccc(-c3ccc4nnc(C)n4n3)cc2)cc1,"inconclusive: 20 µM [quencher, side channel, partial curve]"
7,CCN(CC)CCN(C(=O)c1cccc([N+](=O)[O-])c1)c1nc2ccc(OC)cc2s1,"inconclusive: 31.6 µM [quencher, side channel, single point]"
8,Cc1cccc(NC(=O)c2sc(C)nc2C)c1,"inconclusive: 0.708 µM [quencher, side channel, partial curve, poor fit]"
9,O=C(CCN1C(=O)c2ccccc2C1=O)Nc1ccncc1,"inconclusive: 15.8 µM [quencher, side channel, partial curve]"
10,COCCn1nnnc1C(c1cc2cc(C)ccc2[nH]c1=O)N1CCc2ccccc21 (stereo not drawn),"inconclusive: 17.8 µM [quencher, side channel, partial curve]"
11,CC(C)(C)N1C(=O)c2ccc(C(=O)Nc3nccs3)cc2C1=O,"inconclusive: 15.8 µM [quencher, side channel, partial curve]"
12,c1ccc(Oc2ccc(-c3ccnc4ncnn34)cc2)cc1,"inconclusive: 11.2 µM [quencher, side channel, partial curve]"
13,O=C(NCCCN1CCN(c2ccccc2F)CC1)C1CCN(S(=O)(=O)c2cccs2)CC1,inactive
14,CCOc1ccc(C(=O)NCC(c2cccs2)N(C)C)cc1 (stereo not drawn),"inconclusive: 0.158 µM [fluorescent, side channel, full curve, poor fit]"
15,C=CCSc1nc(N)c(C#N)c(-c2ccccc2)c1C#N,"inconclusive: 35.5 µM [fluorescent, side channel, single point]"
16,COc1ccccc1NC(=O)C1=C(C)N(c2ccccc2)C(=S)NC1c1cccc(C(F)(F)F)c1 (stereo not drawn),"inconclusive: 39.8 µM [fluorescent, single point]"
17,O=C(Cn1cncc1-c1ccc([N+](=O)[O-])cc1)Nc1cccc2ccccc12,"inconclusive: 10 µM [quencher, side channel, partial curve]"
18,CCCCCCn1c(=O)[nH]c2nc3cc(N)c(C)cc3nc2c1=O,"inconclusive: 17.8 µM [quencher, side channel, partial curve]"
19,CC1(C)CC(=O)C2=C(C1)Nc1ccccc1NC2c1cccc(F)c1 (stereo not drawn),"inconclusive: 31.6 µM [quencher, side channel, single point]"
20,COc1ccc(N(CCCN2C(=O)c3cccc4cccc(c34)C2=O)C(=O)c2cccnc2)cc1,"inconclusive: 25.1 µM [quencher, side channel, partial curve]"
21,CCCCC1C(C#N)=C(C)NC2=C1C(=O)CC(C)(C)C2 (stereo not drawn),inactive

row,SMILES,Potency
1,O=C(CCN1C(=O)/C(=C/c2ccccc2)SC1=S)NCCCN1CCOCC1,"inconclusive: 10 µM [quencher, side channel, partial curve]"
2,CCn1c(SCc2ccc(C(=O)OC)o2)nnc1-c1c[nH]c2ccccc12,"inconclusive: 126 µM [inhibitor, partial curve]"
3,O=C(NNC(=S)NC(=O)c1ccccc1[N+](=O)[O-])c1ccc(Cl)cc1Cl,inactive
4,CC1=CC2=NC(=O)/C(=C/c3coc4ccccc4c3=O)C(=N)N2O1,"inconclusive: 14.1 µM [quencher, partial curve]"
5,NC(=O)CSc1nnc2ccc(-c3ccc(Cl)cc3)nn12,"inconclusive: 3.16 µM [quencher, full curve]"
6,O=C(C1CC1)N1CCN(c2nc3ccccc3s2)CC1,inactive
7,CC(C)N=C(NC#N)SCc1ccccc1F,inactive
8,C/C(=N\N1CCN(Cc2ccc(Cl)cc2)CC1)c1ccc([N+](=O)[O-])cc1,"inconclusive: 12.6 µM [quencher, side channel, partial curve]"
9,CCc1nnc(NC(=O)c2ccc(S(=O)(=O)N(C)Cc3ccccc3)cc2)o1,inactive
10,Nc1nnc(SCc2ccc(Cl)cc2)s1,"inconclusive: 0.199 µM [inhibitor, full curve, poor fit]"
11,CCc1ccc2[nH]c3nc(N/N=C/c4ccc(O)cc4O)nnc3c2c1,inactive
12,Cc1ccc2cc(C(c3nnnn3Cc3ccccc3)N3CCc4ccccc43)c(=O)[nH]c2c1C (stereo not drawn),"inconclusive: 3.55 µM [fluorescent, side channel, full curve, poor fit]"
13,CCCc1nc2c(C)cc(C)cc2c(N)c1CC,"inconclusive: 0.562 µM [quencher, side channel, partial curve, poor fit]"
14,O=[n+]1c2c(n([O-])c3cc(Br)ccc31)CCCC2,"inconclusive: 3.16 µM [quencher, side channel, partial curve]"
15,NC(=O)NC(=O)COC(=O)/C=C/c1cccs1,"inconclusive: 25.1 µM [quencher, side channel, single point]"
16,Cc1cc(Sc2nc(N)ncc2[N+](=O)[O-])ncn1,"inconclusive: 3.16 µM [quencher, side channel, full curve]"
17,CC(C)N1CCN(Cc2ccc3nsnc3c2)CC1CCO (stereo not drawn),"inconclusive: 10 µM [quencher, side channel, partial curve]"
18,CC[n+]1c(/C=C/c2cc([N+](=O)[O-])ccc2O)ccc2ccccc21,"inconclusive: 14.1 µM [quencher, side channel, partial curve]"
19,CCCOC1OC(=O)c2c1ccc(OC)c2OC (stereo not drawn),"inconclusive: 25.1 µM [fluorescent, side channel, partial curve]"
20,CC(C)(C)C(=O)O/N=C(\N)c1ccc([N+](=O)[O-])s1,"inconclusive: 7.08 µM [quencher, side channel, partial curve]"
21,CCN(CC)c1ccc(Nc2cc3n(c(=O)n2)CCc2cc(OC)c(OC)cc2-3)cc1,"inconclusive: 28.2 µM [quencher, side channel, partial curve]"
